According to PubChem BioAssay AID686978 (National Center for Advancing Translational Sciences (NCATS), 2013):
Values joined by “and” are separate entries in the source; they are usually repeats but may differ in a detail not shown here. Equal values may be shown once. The whole screen tested about 420,000 compounds, of which about 64,000 (15%) were called active. The inconclusive results got no clear call from the source; some entries with a clear call stand among them for comparison. Calls follow the shape of the dose curve; as a rule, active = well fitted inhibition curve with a large enough effect; inconclusive = small, poorly fitted or top-dose-only effect; inactive = flat fitted curve, though single readings scatter. Potencies of inconclusive entries are left out as doubtful fits. Some compounds were tested as several samples or in several runs, with calls that do not always agree.

Test: qHTS for Inhibitors of human tyrosyl-DNA phosphodiesterase 1 (TDP1): qHTS in cells in absence of CPT; also: nearly all actives have a fitted effect of over 55% in size
Conditions: DT40 Tdp1-/- hTDP1 cells, no CPT, ATP luminescence, 48 h; activity change, negative = growth inhibition: at 46.2 µM (top of the series) unless noted
Summary of the method: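 No-CPT arm: Tdp1-/-;hTDP1 DT40 cells (400/well) plus compounds, incubated ≥48 hr at 37 °C. Readout CellTiter-Glo luminescence.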
% is scaled to controls: 0 for no effect and ±100 for the full control effect; potency is read from the fitted curve at half-maximal effect; tags tell the direction and shape of the fitted curve.

Structure (SMILES)	Potency	activity change, negative = growth inhibition
O=C(CN1C(=O)NC2(CCCC2)C1=O)N1CCN(S(=O)(=O)c2cc(Cl)ccc2Cl)CC1	inconclusive [inhibitor, partial curve]	
O=C(N/N=C\c1cc(Br)c(Br)o1)c1cncc(Br)c1	inconclusive [inhibitor, single point]	
CN(Cc1ccccc1F)c1cc2c(c3c1ccn3C)C1CCC2O1 (configuration not stated)	inconclusive [inhibitor, single point]	
Cc1ccc(C(=O)O/N=C(\N)c2ccccn2)c(C)c1	inactive	
COc1cccc(-n2c(SCc3c(C)noc3C)nnc2-c2cccc(S(=O)(=O)N(C)C)c2)c1	inconclusive [inhibitor, single point]	
O=C(Nc1ccc2oc(-c3ccc4ccccc4c3)nc2c1)c1ccc2c(c1)OCCO2	active: 8.2 µM	
CC(C)(C)c1ccccc1NC(=O)CSc1nc(-c2cccs2)cc(C(F)(F)F)n1	inconclusive [inhibitor, single point]	
CCc1cc2c(=O)c(-c3nc4ccccc4n3C)coc2c(CN2CCCCC2C)c1O (configuration not stated)	inconclusive [inhibitor, single point]	
NC1=NS(=O)(=O)NC1c1ccc(Br)cc1 (configuration not stated)	inactive	
Nc1nc(SCc2nc3sc4c(c3c(=O)[nH]2)CCCC4)n[nH]1	inconclusive [inhibitor, single point]	
COc1cc(/C=C(\C#N)C(=O)Nc2ccc(SC(F)F)cc2)cc(OC)c1OC	inconclusive [inhibitor, single point]	
CCCc1nn2c(=O)cc(COc3ccc(NC(=O)c4ccco4)cc3)nc2s1	inactive	
COc1cc(CC(=O)Nc2cc(S(=O)(=O)N3CCOCC3)ccc2N2CCCC2)cc(OC)c1OC	inactive	
COc1cccc(CNc2ncnc3nc[nH]c23)c1	inconclusive [inhibitor, single point]	
CCCCn1c(=O)c(C(C)=O)c(O)c2ccccc21	inactive	
CCN(CC)CCNC(=O)c1sc2ncn(CC(=O)Nc3ccc(C)c(Cl)c3)c(=O)c2c1C	inconclusive [inhibitor, single point]	
Cc1cccc2sc(NS(=O)(=O)c3ccccc3)nc12	inconclusive [inhibitor, single point]	
Cn1c(OCc2cccnc2)nc2c1c(=O)n(Cc1ccc(Br)cc1)c(=O)n2C	inconclusive [inhibitor, single point]	
O=C(NCc1ccc2c(c1)CCN2C(=O)c1ccc(F)cc1)c1ccco1	inconclusive [inhibitor, single point]	
COc1ccc(-c2csc(NC3OC(=O)c4ccccc43)n2)cc1 (configuration not stated)	active: 6.51 µM	
Cc1ccc2nc(SCC(=O)N3CCN(c4ccccc4)CC3)nc(=O)n2c1	inactive	
CCOc1ccc(C(=O)Nc2ccc(-n3nncc3-c3ccccc3)cc2)cc1OCC	active: 14.6 µM	
CO[C@H]1[C@H](NC(=O)c2cccc(F)c2)c2ccccc2C12CCN(Cc1ccco1)CC2	inactive	
Cc1nnc(NC(=O)CSc2nc(N)c(NC(=O)c3cccs3)c(=O)[nH]2)s1	inactive	

Structure (SMILES)	Potency	activity change, negative = growth inhibition
CCCc1nnc(NC(=O)c2cn(CC)c3cc(N4CCN(C)CC4)c(F)cc3c2=O)s1	inconclusive [inhibitor, single point]	
CCOc1cc(C2NC(=O)N(C)C(C)=C2[N+](=O)[O-])ccc1OC(C)=O (configuration not stated)	inactive	
O=C(c1ccc(N2CCN(C(=O)c3ccc(F)cc3F)CC2)cc1)c1cccc(F)c1	inconclusive [inhibitor, partial curve]	
CC(Oc1ccccc1)C(=O)N[C@@H]1C(=O)N2C(C(=O)OCC3CCCCC3)C(C)(C)S[C@H]12 (some centres not stated)	inactive	
Cn1nc(C(F)(F)F)c(C(=O)Nc2ccc(C(F)(F)F)cc2)c1Cl	inconclusive [inhibitor, partial curve]	
c1ccc(Cc2nnc(N3CCCCC3)c3ccccc23)cc1	inconclusive [inhibitor, single point]	
CSc1ccccc1NC(=O)c1cc2ncc(Br)cn2n1	inactive	
CCC(=O)Nc1cccc(C(=O)Nc2nccs2)c1	inconclusive [inhibitor, single point]	
CC(CCc1ccccc1)NC(=O)COC(=O)c1ccccc1O (configuration not stated)	inactive	
CCOc1ccc(C(=O)N[C@H](C(=O)Nc2ccc(S(=O)(=O)Nc3nccs3)cc2)C(C)C)cc1	inactive	
Cc1ccccc1NC(=O)CSc1nnc(-c2ccccn2)o1	inactive	
CCc1ccc(C(=O)CN2C(=O)NC3(CCc4ccccc43)C2=O)cc1 (configuration not stated)	inactive	
CCN(C(=O)c1cc2c(=O)n3cccc(C)c3nc2s1)c1ccc(C)c(C)c1	inconclusive [inhibitor, single point]	
Fc1ccc(-n2c(-c3cccs3)nc3nc4ccccc4nc32)cc1	inconclusive [inhibitor, partial curve]	
CCC(NC(=O)Nc1cc(OC)ccc1OC)c1c(-n2cccc2)sc2c1CCN(CC)C2 (configuration not stated)	active: 23.1 µM	
C1CCC(c2nn3c(-c4n[nH]c5c4CCC5)nnc3s2)CC1	inconclusive [inhibitor, single point]	
O=c1cc2[nH]c3ccccc3c(=O)n2nc1-c1ccccc1	inconclusive [inhibitor, partial curve]	
CC[C@]12c3[nH]c4ccccc4c3CCN1C(=O)C(CC(=O)NCCCn1ccnc1)C[C@@H]2C(=O)N1CCN(C(=O)c2ccco2)CC1 (some centres not stated)	inactive	
O=C(c1cncc(Br)c1)N1CCc2ccccc2C1	inconclusive [inhibitor, full curve]	
CCc1ccccc1N(C)S(=O)(=O)c1ccc(-c2cc(C)no2)s1	active: 1.3 µM	
CN(CC(=O)Nc1ccc(Cl)cc1)C(=O)c1cccc(S(=O)(=O)NCc2ccccc2)c1	inconclusive [inhibitor, single point]	
CCOc1ccc(NC(=O)COC(=O)CC2CC3CCC2C3)cc1 (configuration not stated)	inactive	
Cc1ccc(O)c(C(=O)c2cnc3c(c2)c(C)nn3-c2ccccc2)c1	inconclusive [inhibitor, partial curve]	
Cc1cc(C)cc(N(CC(=O)N2CCN(Cc3ccccc3)CC2)S(=O)(=O)c2c(C)noc2C)c1	inconclusive [inhibitor, single point]	

Structure (SMILES)	Potency	activity change, negative = growth inhibition
CCCOc1ccc2ccccc2c1/C=C1\SC(=O)NC1=O	inconclusive [inhibitor, single point]	
Cc1cccc(NC(=O)c2sc3nc4c(c(-c5cccs5)c3c2N)CN(C)CC4)c1	inconclusive [inhibitor, single point]	
c1ccc2cc3c(NCCN4CCOCC4)ccnc3cc2c1	active: 20.6 µM	
Cc1oc2ccc(O)c(CN3CCN(C)CC3)c2c1C(=O)Nc1cccc(C(F)(F)F)c1	inconclusive [inhibitor, single point]	
Cc1ccc(Cn2cnc3ccccc32)cc1C	active: 16.4 µM	
Cn1cc(C(=O)c2ccc(Cl)cc2Cl)cc1C(=O)NN	inactive	
CCOC(=O)/C(=N\Nc1cc(Cl)ccc1Cl)N1CC(C)OC(C)C1 (configuration not stated)	inconclusive [inhibitor, single point]	
O=C(CSc1nc2c([nH]c3ccccc32)c(=O)n1-c1cccc(Cl)c1)N1CCOCC1	inactive and active: 14.6 µM	
Cc1cc(S(=O)(=O)N2CCN(c3ccccc3F)CC2)ccc1-n1cnnn1	inconclusive [inhibitor, partial curve]	
COc1ccc(OC)c(C(=O)c2coc3ccc(O)cc23)c1	inconclusive [inhibitor, partial curve]	
O=C(COc1ccccc1/C=C1\SC(=O)NC1=O)Nc1ccccc1	inactive	
CCCCN(CC)S(=O)(=O)c1ccc(C(=O)Nc2nnc(CSC)o2)cc1	active: 14.6 µM	
N/C(=N/O)c1nc(N2CCCC2)nc(N2CCCC2)n1	inactive	
O=C1NC(c2cccs2)Nc2sc3c(c21)CCCC3 (configuration not stated)	active: 3.26 µM	
COc1ccc(C2(c3ccc(O)cc3O)CC(c3ccccc3Cl)NC(=S)N2)cc1 (configuration not stated)	inconclusive [inhibitor, single point]	
CCOC(=O)c1c(NC(=O)CSc2cn(CCNC(=O)c3ccccc3OC)c3ccccc23)sc2c1CCC2	inconclusive [inhibitor, single point]	
Cc1ccc(-n2c(C)cc3c2CCCC3=O)cc1		inconclusive: -30.5% [inhibitor]
O=C(Cn1c(=O)oc2cc(S(=O)(=O)N3CCCC3)ccc21)N1CCN(c2ccccc2F)CC1		inconclusive: -33.1% [inhibitor]
CCCNC(=O)NCCc1ccncc1	inactive	
CC(NC(=O)[C@H](Cc1c[nH]c2ccccc12)NC(=O)[C@@H]1Cc2ccccc2CN1)c1ccccc1 (some centres not stated)	inconclusive [inhibitor, single point]	
CCOCCCNC(=S)NCCNc1nc2c(C)cccc2cc1C#N	inconclusive [inhibitor, single point]	
CN1CC2=Cc3ccccc3OC23Oc2ccccc2C=C3C1	inconclusive [inhibitor, single point]	
Cc1ccc2nc(-c3ccc4c(c3)NC(=O)CO4)cn2c1	inconclusive [inhibitor, single point]	
CCC(C)c1ccc(NC(=O)C2CC3CCC2C3)cc1 (configuration not stated)	active: 25.9 µM	
